# Reference: the supplement of paper PMC4967469
# pIC50: −log10 of the molar value. IC50 is the fitted dose that halves viability relative to control wells, and lower means more sensitive; a limit (>, <) means that the fit lies beyond the doses tested. AUC, from the same fit, is the share of area under the viability curve across the 256-fold dose range; values near 1 show little effect. For part of these data: The top dose, if marked as inferred, was derived from the fitted curves, not read from the paper.
# Tests used:
# Experiment in all cases: Viability of human cancer cell lines after 72 h of drug (GDSC screen)
# ABT-263 = compound: CC1(C)CCC(c2ccc(Cl)cc2)=C(CN2CCN(c3ccc(C(=O)NS(=O)(=O)c4ccc(N[C@H](CCN5CCOCC5)CSc5ccccc5)c(S(=O)(=O)C(F)(F)F)c4)cc3)CC2)C1 [ABT-263]; settings: top dose 2 µM; top dose inferred
# Method: (§1)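 Human cancer cell lines in 384-well plates, medium with 10% serum, drug for 72 h over a 256-fold dose range (nine 2-fold or five 4-fold steps up to the top dose). Adherent lines were fixed and stained with the nucleic acid dye Syto60, suspension lines read with resazurin; signal relative to control wells, capped at 0 and 100%. One two-parameter sigmoid per drug and line, fitted in a mixed model over all curves with the slope shared within a line.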
# piperlongumine = compound: COc1cc(/C=C/C(=O)N2CCC=CC2=O)cc(OC)c1OC [piperlongumine]; settings: top dose 10 µM
# Method: as §1
# GW 441756 = compound: Cn1cc(/C=C2\C(=O)Nc3cccnc32)c2ccccc21 [GW 441756]; settings: top dose 2 µM; top dose inferred
# Method: as §1
# Salubrinal = compound: O=C(/C=C/c1ccccc1)NC(NC(=S)Nc1cccc2cccnc12)C(Cl)(Cl)Cl [Salubrinal]; settings: top dose 16 µM; top dose inferred
# Method: as §1
# GW843682X = compound: COc1cc2ncn(-c3cc(OCc4ccccc4C(F)(F)F)c(C(N)=O)s3)c2cc1OC [GW843682X]; settings: top dose 0.256 µM
# Method: as §1
# PIK-93 = compound: CC(=O)Nc1nc(C)c(-c2ccc(Cl)c(S(=O)(=O)NCCO)c2)s1 [PIK-93]; settings: top dose 20 µM
# Method: as §1
Cell Line,AUC (ABT-263),pIC50 (ABT-263),AUC (piperlongumine),pIC50 (piperlongumine),AUC (GW 441756),pIC50 (GW 441756),AUC (Salubrinal),pIC50 (Salubrinal),AUC (GW843682X),pIC50 (GW843682X),AUC (PIK-93),pIC50 (PIK-93)
"NCI-H1770 (non-small cell lung carcinoma, suspension)",0.515,6.86,0.808,5.35,0.992,< 5.70,0.937,< 4.80,0.919,< 6.59,0.909,< 4.70
"NCI-H1836 (small cell lung carcinoma, suspension)",0.665,6.42,0.894,< 5.00,0.988,< 5.70,0.967,< 4.80,0.79,6.90,0.968,< 4.70
"NCI-H1838 (lung adenocarcinoma, adherent)",0.952,< 5.70,0.836,5.06,0.969,< 5.70,0.879,< 4.80,0.976,< 6.59,0.96,< 4.70
"NCI-H1869 (lung squamous cell carcinoma, adherent)",0.956,< 5.70,0.828,5.14,0.924,< 5.70,0.985,< 4.80,0.929,< 6.59,0.936,< 4.70
"NCI-H1876 (small cell lung carcinoma, adherent)",0.599,6.63,0.804,5.29,0.987,< 5.70,0.967,< 4.80,0.474,7.87,0.85,4.81
"NCI-H1975 (lung adenocarcinoma, adherent)",0.947,< 5.70,0.72,5.54,0.877,< 5.70,0.931,< 4.80,0.657,7.33,0.861,< 4.70
"NCI-H2081 (small cell lung carcinoma, suspension)",0.973,< 5.70,0.98,< 5.00,0.97,< 5.70,0.962,< 4.80,0.926,< 6.59,0.924,< 4.70
"NCI-H2135 (non-small cell lung carcinoma, adherent)",0.966,< 5.70,0.99,< 5.00,0.989,< 5.70,0.951,< 4.80,0.889,< 6.59,0.739,5.23
"NCI-H2141 (small cell lung carcinoma, suspension)",0.772,6.12,0.824,5.24,0.989,< 5.70,0.953,< 4.80,0.783,6.98,0.969,< 4.70
"NCI-SNU-1 (stomach, suspension)",0.794,6.02,0.837,5.15,0.985,< 5.70,0.938,< 4.80,0.944,< 6.59,0.715,5.28
"NCI-SNU-5 (stomach, suspension)",0.86,5.76,0.802,5.30,0.936,< 5.70,0.936,< 4.80,0.684,7.28,0.974,< 4.70
"NCI-SNU-16 (stomach, suspension)",0.951,< 5.70,0.823,5.30,0.991,< 5.70,0.907,< 4.80,0.448,7.93,0.991,< 4.70
"NEC8 (testis, adherent)",0.92,< 5.70,0.789,5.43,0.79,6.13,0.797,5.20,0.689,7.31,0.836,4.98
"NH-12 (neuroblastoma, adherent)",0.491,6.93,0.816,5.19,0.983,< 5.70,0.983,< 4.80,0.966,< 6.59,0.767,5.08
"NKM-1 (acute myeloid leukaemia, suspension)",0.212,7.76,0.792,5.33,0.939,< 5.70,0.802,5.09,0.802,6.89,0.294,6.49
"NMC-G1 (glioma, adherent)",0.779,6.00,0.769,5.33,0.964,< 5.70,0.873,< 4.80,0.783,6.87,0.781,4.99
"NOMO-1 (acute myeloid leukaemia, suspension)",0.388,7.23,0.757,5.41,0.969,< 5.70,0.84,4.88,0.835,6.70,0.378,6.26
"NOS-1 (osteosarcoma, adherent)",0.879,< 5.70,0.813,5.15,0.943,< 5.70,0.801,5.00,0.497,7.80,0.694,5.30
"NU-DUL-1 (B-cell lymphoma, suspension)",0.647,6.54,0.847,5.28,0.991,< 5.70,0.923,< 4.80,0.497,7.80,0.182,6.74
"OCI-AML2 (acute myeloid leukaemia, suspension)",0.3,7.39,0.802,5.45,0.995,< 5.70,0.926,4.85,0.589,7.58,0.251,6.52
"OCI-AML3 (acute myeloid leukaemia, suspension)",0.984,< 5.70,0.791,5.42,0.986,< 5.70,0.98,< 4.80,0.599,7.54,0.324,6.36

Cell Line,AUC (ABT-263),pIC50 (ABT-263),AUC (piperlongumine),pIC50 (piperlongumine),AUC (GW 441756),pIC50 (GW 441756),AUC (Salubrinal),pIC50 (Salubrinal),AUC (GW843682X),pIC50 (GW843682X),AUC (PIK-93),pIC50 (PIK-93)
"OCI-AML5 (acute myeloid leukaemia, suspension)",0.64,6.53,0.807,5.34,0.721,6.31,0.923,< 4.80,0.562,7.63,0.383,6.21
"OCI-LY-19 (B-cell lymphoma, suspension)",0.385,7.21,0.839,5.22,0.501,6.90,0.915,< 4.80,0.475,7.86,0.212,6.71
"OCI-M1 (acute myeloid leukaemia, suspension)",0.791,6.17,0.848,5.31,0.995,< 5.70,0.986,< 4.80,0.633,7.47,0.861,4.97
"OCUB-M (breast, adherent)",0.979,< 5.70,0.709,5.66,0.985,< 5.70,0.841,5.05,0.446,7.94,0.605,5.63
"OMC-1 (cervix, adherent)",0.895,< 5.70,0.81,5.26,0.947,< 5.70,0.978,< 4.80,0.914,< 6.59,0.89,< 4.70
"ONS-76 (medulloblastoma, adherent)",0.976,< 5.70,0.716,5.57,0.89,< 5.70,0.875,< 4.80,0.7,7.21,0.885,< 4.70
"OPM-2 (myeloma, suspension)",0.958,< 5.70,0.897,5.08,0.992,< 5.70,0.968,< 4.80,0.812,6.97,0.517,5.86
"OS-RC-2 (kidney, adherent)",0.876,< 5.70,0.661,5.67,0.891,< 5.70,0.909,< 4.80,0.772,6.83,0.767,4.96
"OVCAR-4 (ovary, adherent)",0.92,< 5.70,0.777,5.21,0.938,< 5.70,0.838,< 4.80,0.624,7.38,0.784,4.87
"P30-OHK (lymphoblastic leukaemia, suspension)",0.709,6.37,0.63,5.87,0.991,< 5.70,0.961,< 4.80,0.944,< 6.59,0.189,6.74
"P31-FUJ (acute myeloid leukaemia, suspension)",0.978,< 5.70,0.834,5.35,0.996,< 5.70,0.995,< 4.80,0.996,< 6.59,0.956,< 4.70
"P32-ISH (Burkitt lymphoma, suspension)",0.993,< 5.70,0.72,5.66,0.995,< 5.70,0.884,5.00,0.408,8.02,0.558,5.76
"PF-382 (T-cell lymphoblastic leukaemia, suspension)",0.748,6.24,0.983,< 5.00,0.989,< 5.70,0.935,< 4.80,0.433,7.97,0.432,6.08
"PSN1 (pancreas, adherent)",0.972,< 5.70,0.704,5.68,0.973,< 5.70,0.937,< 4.80,0.348,8.18,0.708,5.37
"QIMR-WIL (acute myeloid leukaemia, suspension)",0.497,6.91,0.805,5.31,0.978,< 5.70,0.892,< 4.80,0.616,7.48,0.343,6.33
"REH (B-cell leukaemia, suspension)",0.46,7.01,0.793,5.36,0.987,< 5.70,0.888,< 4.80,0.929,< 6.59,0.452,6.03
"RF-48 (stomach, adherent)",0.975,< 5.70,0.963,< 5.00,0.976,< 5.70,0.931,< 4.80,0.694,7.22,0.298,6.50
"RH-1 (rhabdomyosarcoma, adherent)",0.982,< 5.70,0.722,5.63,0.984,< 5.70,0.956,< 4.80,0.74,7.17,0.534,5.82
"RKO (large intestine, adherent)",0.982,< 5.70,0.788,5.39,0.988,< 5.70,0.925,< 4.80,0.417,8.02,0.753,5.20
"RL (B-cell lymphoma, suspension)",0.74,6.25,0.989,< 5.00,0.99,< 5.70,0.983,< 4.80,0.985,< 6.59,0.365,6.26
"ROS-50 (B-cell leukaemia, suspension)",0.715,6.22,0.978,< 5.00,0.984,< 5.70,0.951,< 4.80,0.92,< 6.59,0.509,5.88
